Source: PubChem BioAssay AID1347120 (National Center for Advancing Translational Sciences (NCATS), 2019)
Hit rate of the full screen: of about 390,000 compounds, about 930 (0.24%) were called active. Inconclusive results, whose numbers are uncertain, are shown with a selection of clear calls. Calls follow the shape of the dose curve; as a rule, active = well fitted activation curve with a large enough effect; inconclusive = small, poorly fitted or top-dose-only effect; inactive = no such curve, though single readings can be large or run the other way. Potencies beside an inconclusive call are fits to weak or partial responses and may not hold up.

Test: qHTS for Suppressors of FUS Proteinopathy: Primary screen using FUS-linked yeast assay; also: nearly all actives have a fitted effect of over 55% in size;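 as to growth rescue (activation): plate controls were DMSO vehicle for no effect and reference control for full effect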
Conditions: S. cerevisiae FUS-expressing, OD600, 24 h; Potency: growth rescue; growth rescue (activation): at 76.6 µM (top of the series)
In short: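 Quantitative HTS measuring growth restoration of FUS-toxic yeast. Galactose-induced cells (OD 0.005) were exposed 24hr at 30C to compounds at several concentrations, then absorbance at 600 nm was recorded.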
Potency is read from the fitted curve at half-maximal effect; tags tell the direction and shape of the fitted curve.

Question: With `COc1ccc(C2CC(C)(c3ccc(OC)cc3OC)Nc3ccccc3N2)c(OC)c1` (configuration not stated) as the compound, how does the “growth rescue (activation)” value read?
Answer: The value was inactive: 16.9%.

Question: Which Potency does the source give for `Cc1ccc(C(=O)N2CCc3cc(CNS(=O)(=O)c4cccs4)ccc32)cc1` here?
Answer: The Potency was inconclusive: 35.5 µM [activator, single point].

Question: Which Potency does the source give for `CN1C(=O)Cc2cc(S(=O)(=O)NCCc3ccc(Cl)cc3)ccc21` here?
Answer: Its Potency is inconclusive: 31.6 µM [activator, partial curve, poor fit].

Question: Which Potency does the source give for `CCN(C(=O)COC(=O)Cn1c(C)csc1=O)c1c(N)n(Cc2ccccc2)c(=O)[nH]c1=O` here?
Answer: Its Potency is inconclusive: 50.1 µM [activator, single point].

Question: Which Potency does the source give for `Clc1ccc(OCc2nn3c(C4CCCCC4)nnc3s2)cc1` here?
Answer: Its Potency is inconclusive: 28.2 µM [activator, single point].

Question: With `CCN1C(=O)[C@H]2[C@@H](c3ccc(-c4ccc(F)cc4)cc3)N3CCCC[C@@]3(C(=O)OC)[C@H]2C1=O` as the compound, how does the Potency read?
Answer: Its Potency is inconclusive: 17.8 µM [activator, partial curve, poor fit].

Question: For `Cc1ccc(-c2ccc3c(c2)O[C@H](CN(C)C(=O)Nc2ccc(C(F)(F)F)cc2)[C@H](C)CN([C@H](C)CO)S3(=O)=O)cc1`, which Potency is on record?
Answer: The Potency was inconclusive: 31.6 µM [activator, single point].

Question: For `Cc1cc(C(=O)O)ccc1-n1c(C)cc(C=C2C(=O)c3ccccc3C2=O)c1C`, which Potency is on record?
Answer: Its Potency is inconclusive: 50.1 µM [activator, single point].

Question: With `CC(=O)Nc1ccc(NC(=O)Cc2ccc(S(=O)(=O)N3CCCCC3)s2)cc1` as the compound, how does the Potency read?
Answer: The Potency was inconclusive: 20 µM [activator, single point].

Question: With `Cc1ccc2[nH]c(C)c(/C=C/c3cc[n+](C)cc3)c2c1` as the compound, how does the “growth rescue (activation)” value read?
Answer: The value was inactive: -1.88%.

Question: With `Cc1ccc(N(CC(=O)Nc2ccccc2-c2ccccc2)S(=O)(=O)c2ccccc2)c(C)c1` as the compound, how does the Potency read?
Answer: The Potency was inconclusive: 25.1 µM [activator, single point].

Question: With `CC(=O)n1cc([C@@H]2C=C(C(=O)Nc3ccccc3)O[C@H](OCCCCO)C2)c2ccccc21` as the compound, how does the Potency read?
Answer: Its Potency is inconclusive: 31.6 µM [activator, single point].

Question: For `O=C1N[C@H](Cc2ccccc2)COC(=O)[C@H](Cc2ccc(F)cc2)CC/C=C/C[C@H]1CC(=O)N(CCO)Cc1ccccc1`, which Potency is on record?
Answer: Its Potency is inconclusive: 28.2 µM [activator, single point].

Question: With `COc1ccc(-c2nc(C#N)c(N3CCc4ccccc4C3)o2)cc1OC` as the compound, how does the Potency read?
Answer: The Potency was inconclusive: 56.2 µM [activator, partial curve, poor fit].

Question: For `COc1ccc(S(=O)(=O)Nc2cccc3c2O[C@H](CN(C)S(=O)(=O)c2ccccc2)[C@@H](C)CN([C@H](C)CO)C3=O)cc1`, which Potency is on record?
Answer: Its Potency is active: 15.8 µM.

Question: For `C[C@H](NC(=O)c1nc[nH]c1C(=O)NCc1ccc(CNC(=O)OC(C)(C)C)cc1)c1ccccc1`, which Potency is on record?
Answer: Its Potency is inconclusive: 22.4 µM [activator, single point].

Question: With `COC(=O)[C@]12C[C@H](CC(=O)N3CCCC3)C(=O)N(Cc3cccc4ccccc34)C1=C[C@H](C(C)C)O[C@@H]2C1CC1` as the compound, how does the Potency read?
Answer: The Potency was inconclusive: 11.2 µM [activator, partial curve, poor fit].

Question: With `CCOc1ccc(S(=O)(=O)Nc2cccc(C(=O)N3CCN(C(C)=O)CC3)c2)cc1` as the compound, how does the “growth rescue (activation)” value read?
Answer: The value was inactive: 11.3%.

Question: With `COc1ccccc1N1CCN(C(=O)C2CCN(S(=O)(=O)Cc3ccccc3)CC2)CC1` as the compound, how does the “growth rescue (activation)” value read?
Answer: Its value is inactive: 23.9%.

Question: Which Potency does the source give for `COc1ccc(-n2c(SCc3ccc([N+](=O)[O-])cc3)nnc2-c2ccco2)cc1` here?
Answer: The Potency was inconclusive: 17.8 µM [activator, partial curve, poor fit].

Question: For `O=C(C[n+]1cc(Br)cc2ccccc21)c1ccc(Br)cc1`, which Potency is on record?
Answer: Its Potency is inconclusive: 22.4 µM [activator, partial curve, poor fit].

Question: For `CCSC1=C(C#N)C(=O)n2c1cc1c2CCCC1`, which Potency is on record?
Answer: The Potency was inconclusive: 25.1 µM [activator, partial curve].

Question: With `CCc1ccc(NC(=O)CC2C(=O)N(c3cccc(OC)c3)C(=O)N2C2CCCC2)cc1` (configuration not stated) as the compound, how does the Potency read?
Answer: The Potency was inconclusive: 39.8 µM [activator, single point].

Question: Which “growth rescue (activation)” value does the source give for `CCOc1cc(/C=N/NC(=O)COc2ccc(Cl)cc2)ccc1OS(=O)(=O)c1ccccc1` here?
Answer: Its value is inactive: 44.2%.

Question: Which Potency does the source give for `CN(C(=O)c1ccc(NC(=O)Cc2cccc(NC(=O)C3CCN(C(=O)C4CCCCC4)CC3)c2)cc1)C1CCCC1` here?
Answer: Its Potency is inconclusive: 28.2 µM [activator, single point].

Question: For `COc1cc(C2CC(=O)C=C(O)C2)cc(OC)c1OC` (configuration not stated), which Potency is on record?
Answer: Its Potency is inconclusive: 50.1 µM [activator, single point].

Question: For `Cc1ccc(C(=O)NC2=NC(c3ccc(C)cc3)CC(=O)N2)cc1` (configuration not stated), which “growth rescue (activation)” value is on record?
Answer: Its value is inactive: -4.63%.

Question: With `COC(=O)C1=C(C)NC(=O)/C1=C\c1cc(C)n(-c2cc(C)cc(C)c2)c1C` as the compound, how does the Potency read?
Answer: Its Potency is inconclusive: 50.1 µM [activator, single point].

Question: With `COc1ccc(-c2nc(SCC(=O)Nc3ccc4c(c3)OCCO4)c(-c3ccc(C)cc3)[nH]2)cc1OC` as the compound, how does the Potency read?
Answer: The Potency was inconclusive: 39.8 µM [activator, single point].

Question: Which Potency does the source give for `CC(C)(C)OC(=O)N1CCC(c2nnc(SCc3cccc(Cl)c3)o2)CC1` here?
Answer: Its Potency is inconclusive: 14.1 µM [activator, partial curve, poor fit].

Question: Which Potency does the source give for `CC(C)(C)C1CCc2nc(NC(=O)Cc3cn4ccsc4n3)sc2C1` (configuration not stated) here?
Answer: The Potency was inconclusive: 39.8 µM [activator, single point].

Question: Which Potency does the source give for `N=c1n(Cc2ccccc2)c2ccccc2n1CC(O)COc1ccc(Cl)cc1Cl` (configuration not stated) here?
Answer: Its Potency is inconclusive: 35.5 µM [activator, single point].

Question: Which “growth rescue (activation)” value does the source give for `CCOc1ccccc1OCCCC(=O)N1CCN(S(=O)(=O)c2ccc(Cl)cc2)CC1` here?
Answer: The value was inactive: 43.4%.

Question: For `COc1ccccc1CNC(=O)CCC1N=C2c3ccccc3N=C(SCc3ccc(C)cc3C)N2C1=O` (configuration not stated), which Potency is on record?
Answer: The Potency was inconclusive: 31.6 µM [activator, partial curve, poor fit].

Question: Which Potency does the source give for `O=C(CSc1nc2ccccc2c(=O)[nH]1)NCc1ccc(Cl)cc1` here?
Answer: The Potency was inconclusive: 25.1 µM [activator, partial curve].

Question: With `O=C1C2CCCN2c2ccc(S(=O)(=O)N3CCOCC3)cc2N1Cc1ccccc1F` (configuration not stated) as the compound, how does the Potency read?
Answer: Its Potency is inconclusive: 50.1 µM [activator, single point].

Question: Which “growth rescue (activation)” value does the source give for `Cc1ccc2nc(-c3ccc(C#N)cc3)c(Cc3cccc(Cl)c3)n2c1` here?
Answer: The value was inactive: 23.7%.
